Measured values taken from a collection of fitness landscapes (doi:10.1126/science.1257360).
Some of the results follow.

B1: PhoQ; a variant is named by its letters at X, in order, P23837 (parent)
chain: MKKLLRLFFPLSLRVRFLLATAAVVLVLSLAYGMVALIGYSVSFDKTTFRLLRGESNLFYTLAKWENNKLHVELPENIDKQSPTMTLIYDENGQLLWAQRDVPWLMKMIQPDWLKSNGFHEIEADVNDTSLLLSGDHSIQQQLQEVREDDDDAEMTHSVAVNVYPATSRMPKLTIVVVDTIPVELKSSYMVWSWFIYVLSANLLLVIPLLWVAAWWSLRPIEALAKEVRELEEHNRELLNPATTRELTSLVRNLNRLLKSERERYDKYRTTLTDLTHSLKTPLXXLQXXLRSLRSEKMSVSDAEPVMLEQISRISQQIGYYLHRASMRGGTLLSRELHPVAPLLDNLTSALNKVYQRKGVNISLDISPEISFVGEQNDFVEVMGNVLDNACKYCLEFVEISARQTDEHLYIVVEDDGPGIPLSKREVIFDRGQRVDTLRPGQGVGLAVAREITEQYEGKIVAGESMLGGARMEVIFGRQHSAPKDE

Variants of: B1
Test: enrichment ratio after two sorts for PhoP signalling (ratio (wild type AVST 3.29)); higher = more functional
Settings: with PhoP (E. coli)
For KGFK, the enrichment ratio was ≤ 0.25.
In the case of GKGK, the enrichment ratio is reported as ≤ 0.25.
With MHGI the enrichment ratio was ≤ 0.25.
In the case of TRKE, the enrichment ratio is reported as ≤ 0.25.
In the case of QHTF, the enrichment ratio is reported as ≤ 0.25.
MDAV was tested, and the enrichment ratio was 1.54.
For GHVL, the enrichment ratio was ≤ 0.25.
With CLYK the enrichment ratio was ≤ 0.25.
With WMFK the enrichment ratio was ≤ 0.25.
For IVVN, the enrichment ratio was ≤ 0.25.
In the case of GIAP, the enrichment ratio is reported as ≤ 0.25.
In the case of NEDC, the enrichment ratio is reported as ≤ 0.25.
ESQQ was tested, and the enrichment ratio was ≤ 0.25.
In the case of TVIP, the enrichment ratio is reported as ≤ 0.25.
In the case of TNPM, the enrichment ratio is reported as ≤ 0.25.
With DPLN the enrichment ratio was ≤ 0.25.
In the case of PPMT, the enrichment ratio is reported as ≤ 0.25.
With MIRQ the enrichment ratio was ≤ 0.25.
NRWR was tested, and the enrichment ratio was ≤ 0.25.
With EFNT the enrichment ratio was ≤ 0.25.
In the case of AQER, the enrichment ratio is reported as ≤ 0.25.
For TWEN, the enrichment ratio was ≤ 0.25.
In the case of DSTI, the enrichment ratio is reported as ≤ 0.25.
For LDCY, the enrichment ratio was ≤ 0.25.
WNRL was tested, and the enrichment ratio was ≤ 0.25.
For FKCF, the enrichment ratio was ≤ 0.25.
With HVLF the enrichment ratio was ≤ 0.25.
In the case of YEQK, the enrichment ratio is reported as ≤ 0.25.
MKTW was tested, and the enrichment ratio was ≤ 0.25.
In the case of LGLQ, the enrichment ratio is reported as ≤ 0.25.
With HVHK the enrichment ratio was ≤ 0.25.
ACQS showed an enrichment ratio of 6.63.
With KHLF the enrichment ratio was ≤ 0.25.
In the case of GHSI, the enrichment ratio is reported as ≤ 0.25.
GTKE was tested, and the enrichment ratio was ≤ 0.25.
MFHW was tested, and the enrichment ratio was ≤ 0.25.
For IWWC, the enrichment ratio was ≤ 0.25.
For GAPS, the enrichment ratio was ≤ 0.25.
AHRC was tested, and the enrichment ratio was ≤ 0.25.
In the case of AWPF, the enrichment ratio is reported as ≤ 0.25.
For FTQC, the enrichment ratio was ≤ 0.25.
In the case of PAPH, the enrichment ratio is reported as ≤ 0.25.
In the case of HFAA, the enrichment ratio is reported as ≤ 0.25.
With LCKR the enrichment ratio was ≤ 0.25.
In the case of LVKR, the enrichment ratio is reported as ≤ 0.25.
With YYFI the enrichment ratio was ≤ 0.25.
CVFT was tested, and the enrichment ratio was ≤ 0.25.
PNNA was tested, and the enrichment ratio was ≤ 0.25.
With GGRY the enrichment ratio was ≤ 0.25.
For RGKY, the enrichment ratio was ≤ 0.25.
For KTKR, the enrichment ratio was ≤ 0.25.
With YPLR the enrichment ratio was ≤ 0.25.
With WDTW the enrichment ratio was ≤ 0.25.
For AFWF, the enrichment ratio was ≤ 0.25.
For RVDS, the enrichment ratio was ≤ 0.25.
EVQD was tested, and the enrichment ratio was ≤ 0.25.
Variant RNLW has an enrichment ratio of 0.862.
DNHR was tested, and the enrichment ratio was ≤ 0.25.
RTTH was tested, and the enrichment ratio was ≤ 0.25.
For WFRP, the enrichment ratio was ≤ 0.25.
For VNHQ, the enrichment ratio was ≤ 0.25.
With EQYV the enrichment ratio was ≤ 0.25.
With RVWK the enrichment ratio was ≤ 0.25.
DWIV was tested, and the enrichment ratio was ≤ 0.25.
YGPM was tested, and the enrichment ratio was ≤ 0.25.
With DAHA the enrichment ratio was ≤ 0.25.
With LQSL the enrichment ratio was ≤ 0.25.
For YLCP, the enrichment ratio was ≤ 0.25.
YLEP was tested, and the enrichment ratio was ≤ 0.25.
In the case of PYIE, the enrichment ratio is reported as ≤ 0.25.
INIQ was tested, and the enrichment ratio was ≤ 0.25.
QNMN was tested, and the enrichment ratio was ≤ 0.25.
WHLF was tested, and the enrichment ratio was ≤ 0.25.
In the case of LIDI, the enrichment ratio is reported as ≤ 0.25.
LPSD was tested, and the enrichment ratio was ≤ 0.25.
In the case of FHLR, the enrichment ratio is reported as ≤ 0.25.
KKTM was tested, and the enrichment ratio was ≤ 0.25.
For IEVW, the enrichment ratio was ≤ 0.25.
NRNK was tested, and the enrichment ratio was ≤ 0.25.
RPPM was tested, and the enrichment ratio was ≤ 0.25.
For ASEN, the enrichment ratio was ≤ 0.25.
For LYSI, the enrichment ratio was ≤ 0.25.
In the case of SQMH, the enrichment ratio is reported as 2.58.
ADMV was tested, and the enrichment ratio was 35.3.
NFVY was tested, and the enrichment ratio was ≤ 0.25.
FYEK was tested, and the enrichment ratio was ≤ 0.25.
With YIKM the enrichment ratio was ≤ 0.25.
QKGC was tested, and the enrichment ratio was ≤ 0.25.
In the case of FYYL, the enrichment ratio is reported as ≤ 0.25.
For FSQK, the enrichment ratio was 2.06.
In the case of LHKN, the enrichment ratio is reported as ≤ 0.25.
In the case of KTRC, the enrichment ratio is reported as ≤ 0.25.
In the case of PESK, the enrichment ratio is reported as ≤ 0.25.
LKMN was tested, and the enrichment ratio was ≤ 0.25.
EDQR was tested, and the enrichment ratio was ≤ 0.25.
With QEMG the enrichment ratio was ≤ 0.25.
With KPSM the enrichment ratio was ≤ 0.25.
For WEWF, the enrichment ratio was ≤ 0.25.
For SPVV, the enrichment ratio was ≤ 0.25.
WCTG was tested, and the enrichment ratio was ≤ 0.25.
In the case of GIIH, the enrichment ratio is reported as 9.22.
With KFGT the enrichment ratio was ≤ 0.25.
With CHTM the enrichment ratio was ≤ 0.25.
For ESWH, the enrichment ratio was ≤ 0.25.
NCIP was tested, and the enrichment ratio was ≤ 0.25.
For SPWY, the enrichment ratio was ≤ 0.25.
For PAHK, the enrichment ratio was ≤ 0.25.
With IGHK the enrichment ratio was ≤ 0.25.
For WRYF, the enrichment ratio was ≤ 0.25.
For AWNC, the enrichment ratio was ≤ 0.25.
With EVSE the enrichment ratio was ≤ 0.25.
PEED was tested, and the enrichment ratio was ≤ 0.25.
For KFMG, the enrichment ratio was ≤ 0.25.
In the case of TTNW, the enrichment ratio is reported as ≤ 0.25.
Variant TGTN has an enrichment ratio of 8.63.
With SKLP the enrichment ratio was ≤ 0.25.
With NDRY the enrichment ratio was ≤ 0.25.
With NWMN the enrichment ratio was ≤ 0.25.
With IYMQ the enrichment ratio was ≤ 0.25.
With GPFR the enrichment ratio was ≤ 0.25.
For QDQF, the enrichment ratio was ≤ 0.25.
In the case of ENRN, the enrichment ratio is reported as ≤ 0.25.
ENSA was tested, and the enrichment ratio was ≤ 0.25.
QTID was tested, and the enrichment ratio was ≤ 0.25.
QSYC was tested, and the enrichment ratio was 2.55.
For DDWC, the enrichment ratio was ≤ 0.25.
For RKRC, the enrichment ratio was ≤ 0.25.
In the case of FIWV, the enrichment ratio is reported as ≤ 0.25.
In the case of TDQK, the enrichment ratio is reported as ≤ 0.25.
For YAFY, the enrichment ratio was ≤ 0.25.
In the case of RSTP, the enrichment ratio is reported as ≤ 0.25.
With YLEF the enrichment ratio was ≤ 0.25.
For YCTH, the enrichment ratio was ≤ 0.25.
With GFFL the enrichment ratio was ≤ 0.25.
With NKEV the enrichment ratio was ≤ 0.25.
For WAKI, the enrichment ratio was ≤ 0.25.
PPHY was tested, and the enrichment ratio was ≤ 0.25.
For CITN, the enrichment ratio was ≤ 0.25.
With YYAE the enrichment ratio was ≤ 0.25.
For SFPK, the enrichment ratio was ≤ 0.25.
RCKC was tested, and the enrichment ratio was ≤ 0.25.
With RDTW the enrichment ratio was ≤ 0.25.
With QIVP the enrichment ratio was ≤ 0.25.
With VEPC the enrichment ratio was ≤ 0.25.
GITY showed an enrichment ratio of 0.69.
With MDKL the enrichment ratio was ≤ 0.25.
NDWL was tested, and the enrichment ratio was ≤ 0.25.
For AEFR, the enrichment ratio was ≤ 0.25.
YQNK was tested, and the enrichment ratio was ≤ 0.25.
RNHA was tested, and the enrichment ratio was ≤ 0.25.
In the case of FPPV, the enrichment ratio is reported as ≤ 0.25.
With RYRM the enrichment ratio was ≤ 0.25.
In the case of VPWY, the enrichment ratio is reported as ≤ 0.25.
